Test results from the antibiotic and cytotoxicity screens of Wong et al. (2023).
The list shows a part of the results.

Each compound was assayed on HepG2 (assay: cytotoxicity call (relative viability < 0.9)). Conditions: 10 µM.

Row | Compound | cytotoxicity call
1 | COCC(=O)Nc1ccc2c(c1)C(=O)N(C)C[C@@H](OC)[C@@H](C)CN(C(=O)Cc1cccnc1)[C@@H](C)CO2 | inactive
2 | C[C@@H]1CN([C@@H](C)CO)C(=O)c2cc(NC(=O)Nc3ccc(C(F)(F)F)cc3)ccc2O[C@@H](C)CCCCO[C@@H]1CN(C)C(=O)Nc1ccc2c(c1)OCO2 | inactive
3 | C[C@@H]1CCCCO[C@H](CN(C)S(C)(=O)=O)[C@@H](C)CN([C@@H](C)CO)C(=O)c2cc(NS(C)(=O)=O)ccc2O1 | inactive
4 | COc1ccc(NC(=O)N(C)C[C@@H]2Oc3ccc(NC(=O)Nc4ccc(C(F)(F)F)cc4)cc3CC(=O)N([C@H](C)CO)C[C@@H]2C)cc1 | inactive
5 | C[C@H](CO)N1C[C@H](C)[C@H](CN(C)C(=O)Nc2ccc(C(F)(F)F)cc2)OCCCC[C@H](C)Oc2ccc(NS(=O)(=O)c3ccc(Cl)cc3)cc2C1=O | active
6 | COc1ccc(NC(=O)N(C)C[C@@H]2Oc3ccc(NC(=O)Nc4cccc5ccccc45)cc3C(=O)N([C@H](C)CO)C[C@H]2C)cc1 | inactive
7 | CCc1nc2ccc(C(=O)Nc3cccc(NS(C)(=O)=O)c3)cn2c1N(C)CCN1CCOCC1 | inactive
8 | C[C@@H]1CCCCO[C@@H](CN(C)S(=O)(=O)c2ccc(F)cc2)[C@H](C)CN([C@H](C)CO)C(=O)c2cc(NC(=O)Cc3ccccc3)ccc2O1 | inactive
9 | CCCNC(=O)N[C@@H]1CC[C@@H](CC(=O)N2CCN(C)CC2)O[C@H]1CO | inactive
10 | C[C@H]1CCCCO[C@@H](CN(C)S(=O)(=O)c2cccs2)[C@@H](C)CN([C@@H](C)CO)C(=O)c2cc(NC(=O)C3CCCCC3)ccc2O1 | inactive
11 | CC(=O)N1C[C@H](O)C[C@H]1C(=O)O | inactive

Each compound was assayed on S. aureus RN4220 (assay: growth inhibition call (relative growth <= 0.2)). Conditions: 50 µM.

Row | Compound | growth inhibition call
12 | COc1ccc(NC(=O)N(C)C[C@@H]2Oc3ccc(NC(=O)C4CC4)cc3C(=O)N([C@H](C)CO)C[C@@H]2C)cc1 | inactive
13 | O=C1O[C@H](c2ccccc2)[C@H](c2ccccc2)N2[C@H]1[C@@H](C(=O)N1CCN(c3ncccn3)CC1)[C@]1(C(=O)Nc3ccc(C#CC4=CCCCC4)cc31)[C@H]2c1ccc(O)cc1 | inactive
14 | CNC(=O)c1cc(S(=O)(=O)N(C)C[C@@H]2Oc3ccc(NC(=O)Nc4ccc(F)cc4)cc3CC(=O)N([C@@H](C)CO)C[C@@H]2C)cs1 | inactive
15 | O=C(C[C@@H]1CC[C@@H]2[C@H](COC[C@H](O)CN2C(=O)c2cnccn2)O1)NCc1ccc(Oc2ccccc2)cc1 | inactive
16 | COc1ccc(NC(=O)N(C)C[C@H]2OCCCC[C@H](C)Oc3ccc(NC(=O)Nc4cccc5ccccc45)cc3C(=O)N([C@H](C)CO)C[C@H]2C)cc1 | inactive
17 | C[C@H]1CN([C@@H](C)CO)S(=O)(=O)c2ccc(-c3cccnc3)cc2O[C@H]1CN(C)C(=O)NC1CCCC1 | inactive
18 | CC(C)NC(=O)N(C)C[C@H]1Oc2ccc(NC(=O)NC3CCCCC3)cc2C(=O)N([C@H](C)CO)C[C@@H]1C | inactive
19 | COc1ccc(S(=O)(=O)N(C)C[C@H]2Oc3c(NC(=O)c4ccncc4)cccc3C(=O)N([C@H](C)CO)C[C@H]2C)cc1 | inactive
20 | CC(C)CC#Cc1ccc2c(c1)O[C@@H](CN(C)S(=O)(=O)c1cccc(F)c1)[C@H](C)CN([C@H](C)CO)S2(=O)=O | inactive
21 | C[C@H](CO)N1C[C@H](C)[C@H](CN(C)Cc2ccc(-c3ccccc3)cc2)Oc2ccc(NC(=O)Nc3ccc(C(F)(F)F)cc3)cc2CC1=O | inactive
22 | CNC(=O)c1ccc(Nc2ncc(C(F)(F)F)c(NCc3nccnc3N(C)S(C)(=O)=O)n2)cc1 | inactive
23 | C=CCOC(=O)[C@H]1[C@@H]2C(=O)O[C@@H](c3ccccc3)[C@@H](c3ccccc3)N2[C@@H](c2ccc(OCCOC(=O)[C@H]3C[C@H]4C(=O)N5CCC[C@H]5C(=O)N4[C@H]3c3cccc(OCCO)c3)cc2)[C@]12C(=O)Nc1ccccc12 | inactive
24 | Cc1noc(C)c1NC(=O)Nc1cccc2c1O[C@H](CN(C)Cc1ccc(C(=O)Nc3ccccc3N)cc1)[C@@H](C)CN([C@@H](C)CO)C2=O | inactive
25 | N[C@H]1CC[C@H](CCn2cc(C3CC3)nn2)O[C@@H]1CO | inactive
26 | C[C@H]1CN([C@@H](C)CO)C(=O)Cc2cc(NC(=O)Cn3cnnn3)ccc2O[C@H]1CN(C)CC1CCCCC1 | inactive
27 | COc1ccc(NC(=O)Nc2ccc3c(c2)CC(=O)N([C@@H](C)CO)C[C@@H](C)[C@@H](CN(C)C(=O)Nc2cccc4ccccc24)O3)cc1 | inactive
